“And” between values parts separate entries of the source, which are not always exact repeats. Identical values can stand only once. Inconclusive results, whose numbers are uncertain, are shown with a selection of clear calls. Where the call is inconclusive, the potency comes from a doubtful curve fit. The source made the active and inactive calls. Calls come from the whole dose curve; as a rule, active = well fitted curve in the direction sought with a large enough effect; inconclusive = small, poorly fitted or top-dose-only effect, or another doubt; inactive = no such curve, though single readings can be large; an effect the other way counts as inactive or inconclusive.
Key:
[1] = Viability qHTS for spleen associated tyrosine kinase inhibitor (SYKi) naive MV4-11 cells (AID 1963823); conditions: MV4-11 AML viability, CellTiter-Glo luminescence, 72 h; viability (% of control): at 45 µM (top of the series); note: nearly all actives have a fitted effect of over 40% in size
Outline: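 qHTS, SYK inhibitor-naive MV4-11; 500 cells/well; 72 hr compound exposure, 37 C; CellTiter-Glo added, 10 min RT; luminescence read.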

[2] = Viability qHTS for spleen associated tyrosine kinase inhibitor (SYKi) drug resistant MV4-11 cells (AID 1963824); note: nearly all actives have a fitted effect of over 35% in size
Outline: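 SYK inhibitor-resistant MV4-11 AML cells, 500 per well, added to predispensed compounds and incubated 72 hr at 37 C, 5% CO2. Viability measured by CellTiter-Glo luminescence after 10 min at room temperature.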

[3] = Quantitative highthroughput screen to assess conditional lethalithy of P12 Ichikawa cells grown in Human Plasma-Like Medium with dialyzed fetal bovine serum (HPLM+ds) (AID 1963879); conditions: Potency: viability; note: nearly all actives have a fitted effect of over 35% in size
Outline: (§1)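 Each medium arm—HPLM with 10% dialyzed FBS, or RPMI1640 with 5 mM glucose and 10% untreated or dialyzed FBS—was screened against an 11-point, 3-fold compound titration for 48 h at 37 °C, with CellTiter-Glo luminescence as endpoint.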

[4] = Quantitative highthroughput screen to assess conditional lethalithy of P12 Ichikawa cells grown in RPMI1640 with dialyzed fetal bovine serum (RPMI+ds) (AID 1963880); conditions: Potency: P12-Ichikawa viability; note: nearly all actives have a fitted effect of over 35% in size;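 for Viability: 100% = DMSO wells and 0% = empty wells on each plate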
Outline: as §1

[5] = Quantitative highthroughput screen to assess conditional lethalithy of SEM cells grown in Human Plasma-Like Medium with dialyzed fetal bovine serum (HPLM+ds) (AID 1963882); note: nearly all actives have a fitted effect of over 35% in size
Outline: as §1

[6] = Quantitative highthroughput screen to assess conditional lethalithy of SEM cells grown in RPMI1640 with unreated serum (RPMI+s) (AID 1963883); conditions: SEM B-ALL cells, CellTiter-Glo viability, 48 h; viability: at 45.8 µM (top of the series); note: nearly all actives have a fitted effect of over 35% in size;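 for Viability: 100% = DMSO wells and 0% = empty wells without cells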
Outline: as §1

[7] = Quantitative highthroughput screen to assess conditional lethalithy of SEM cells grown in RPMI1640 with dialyzed fetal bovine serum (RPMI+ds) (AID 1963884); conditions: SEM B-ALL cells, RPMI+dialyzed FBS, CellTiter-Glo viability, 48 h; viability: at 45.8 µM (top of the series); note: nearly all actives have a fitted effect of over 35% in size;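 for Viability: 100% = DMSO control wells and 0% = empty wells without cells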
Outline: as §1

[8] = Cellular viability qHTS for adrenocortical cancer (ACC) cell line SW-13 (AID 1963989); conditions: SW-13 ACC cells viability, CellTiter-Glo, 48 h; activity (max response): stronger effect = lower value; note: nearly all actives have a fitted effect of over 65% in size;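 for activity (max response): cells grown in serum-free medium with ITS supplement; % is set by controls: 0 for no effect and ±100 for the full control effect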
Outline: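 IC50 and maximal-response values come from four-parameter logistic fits of titration data. SW-13 cells in serum-free medium received compounds (up to 46 uM final) for 48 h before CellTiter-Glo luminescence.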

[9] = Quantitative highthroughput screen to assess conditional lethalithy of NOMO1 cells grown in Human Plasma-Like Medium with dialyzed fetal bovine serum (HPLM+ds) (AID 1963878); conditions: NOMO1 AML cells in HPLM+ds, CellTiter-Glo viability, 48 h; viability: at 45.8 µM (top of the series); note: nearly all actives have a fitted effect of over 35% in size;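 for Viability: 100% = DMSO wells and 0% = empty wells on each plate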
Outline: as §1

[10] = Cellular viability qHTS for adrenocortical cancer (ACC) cell line NCI-H295R (AID 1963990); conditions: CellTiter-Glo ATP luminescence, 48 h; activity change, negative = viability loss: at 46.1 µM (top of the series); note: nearly all actives have a fitted effect of over 60% in size;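 for activity change, negative = viability loss: 0% = DMSO only wells and -100% = full killing with cytotoxic reference compound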
Outline: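 Adrenocortical carcinoma cells, suspended at 300 000 cells/mL in serum-free DMEM plus ITS, rested overnight before pin transfer of compound. After two days' incubation, ATP-dependent luminescence was recorded and curve-fitted.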

[11] = Quantitative highthroughput screen to assess conditional lethalithy of P12 Ichikawa cells grown in RPMI1640 with untreated serum (RPMI+s) (AID 1963881); conditions: Potency: viability; note: nearly all actives have a fitted effect of over 35% in size;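 for Viability: 100% = DMSO wells and 0% = empty wells without cells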
Outline: as §1
Potency is the fitted concentration of half-maximal effect; tags give direction and shape of the fitted curve.

N[C@@]1(C(=O)O)CS(=O)(=O)[C@H]2[C@H](C(=O)O)[C@H]21
Potency [1]: inactive | Potency [2]: inactive | Potency [3]: inactive | Potency [4]: inactive | Potency [5]: inconclusive: 1.66 µM [cytotoxic, partial curve, poor fit] | Potency [6]: inconclusive: 1.48 µM [cytotoxic, partial curve, poor fit] | Potency [7]: inconclusive: 0.0013 µM [rising, full curve, poor fit] | activity (max response) [8]: inactive: 10.9%

C[C@H](NC(=O)Cc1cc(F)cc(F)c1)C(=O)N[C@@H]1C(=O)N(C)c2ccccc2-c2ccccc21
Potency [1]: inactive | Potency [2]: inconclusive: 18.6 µM [cytotoxic, partial curve] | Potency [9]: active: 4.69 µM | Potency [10]: inconclusive: 15.8 µM [cytotoxic, partial curve, poor fit]

CC(C)c1ccc2oc3nc(N)c(C(=O)O)cc3c(=O)c2c1
Potency [1]: inconclusive: 16.8 µM [cytotoxic, single point] and inconclusive: 9.34 µM [cytotoxic, partial curve, poor fit] | Potency [2]: inconclusive: 26.6 µM [cytotoxic, single point] and inconclusive: 18.6 µM [cytotoxic, partial curve, poor fit] | Potency [3]: inactive | Potency [4]: inactive | Potency [6]: inactive | Potency [7]: inactive

COc1cc2c(cc1OC)CN(CCc1ccc(NC(=O)c3cc(OC)c(OC)cc3NC(=O)c3cnc4ccccc4c3)cc1)CC2
Potency [1]: inactive | Potency [2]: inconclusive: 4.17 µM [cytotoxic, partial curve, poor fit] | Potency [3]: inconclusive: 3.32 µM [cytotoxic, full curve] | Potency [4]: inconclusive: 2.64 µM [cytotoxic, full curve] | Potency [11]: inconclusive: 3.32 µM [cytotoxic, full curve] | Potency [5]: inconclusive: 7.43 µM [cytotoxic, single point] | Potency [6]: inconclusive: 10.5 µM [cytotoxic, partial curve] | Potency [7]: inconclusive: 9.35 µM [cytotoxic, full curve]

O=C(O)CSCC(=O)NC1CCSC1=O (stereo not given)
Potency [1]: inactive | Potency [2]: inactive | Potency [3]: inactive | Potency [4]: inactive

CC1COC2(CCN(c3nc(=O)c4cc(C(F)(F)F)cc([N+](=O)[O-])c4s3)CC2)O1 (stereo not given)
Potency [1]: inconclusive: 0.0164 µM [rising, full curve, poor fit] | Potency [2]: inconclusive: 20.9 µM [cytotoxic, partial curve] | Potency [3]: inconclusive: 10.5 µM [cytotoxic, partial curve] | Potency [4]: inconclusive: 4.18 µM [cytotoxic, full curve] | Potency [11]: inconclusive: 13.2 µM [cytotoxic, partial curve] | Potency [5]: inconclusive: 10.5 µM [cytotoxic, full curve, poor fit] | Potency [6]: inconclusive: 10.5 µM [cytotoxic, partial curve]

Cc1cc2c(s1)Nc1ccccc1N=C2N1CCN(C)CC1
Potency [1]: inconclusive: 11.9 µM [cytotoxic, partial curve, poor fit] | Potency [2]: inconclusive: 15 µM [cytotoxic, partial curve, poor fit] and active: 23.1 µM | Potency [9]: inconclusive: 1.32 µM [cytotoxic, full curve, poor fit] | Potency [10]: inconclusive: 29.1 µM [cytotoxic, single point]

COc1ccc(-c2ccc3cc(C(=O)O)ccc3c2)cc1C12CC3CC(CC(C3)C1)C2
Potency [1]: inconclusive: 1.05 µM [cytotoxic, full curve] | Potency [2]: inconclusive: 0.944 µM [cytotoxic, partial curve] | Potency [3]: inactive | Potency [11]: inactive | Potency [5]: inconclusive: 0.0017 µM [rising, full curve, poor fit] | Potency [7]: inactive | activity (max response) [8]: inactive: -2.5% and inactive: -9.37% | Potency [10]: inactive

Cn1cc(-c2ccc3nnc(C(F)(F)c4ccc5ncccc5c4)n3n2)cn1
Potency [1]: inconclusive: 14.8 µM [cytotoxic, partial curve] | Potency [2]: inconclusive: 14.8 µM [cytotoxic, partial curve] | Potency [3]: inactive | Potency [4]: inactive

COc1c2occc2cc2ccc(=O)oc12
Potency [1]: inactive and inconclusive: 37.2 µM [cytotoxic, single point] | Potency [2]: inconclusive: 37.2 µM [cytotoxic, single point] | Potency [3]: inconclusive: 10.5 µM [cytotoxic, single point] | Potency [11]: inconclusive: 11.8 µM [cytotoxic, single point] | Potency [7]: inactive | Potency [10]: inactive

CCCS(=O)(=O)Nc1ccc(F)c(C(=O)c2c[nH]c3ncc(-c4ccc(Cl)cc4)cc23)c1F
Potency [1]: inconclusive: 5.8 µM [cytotoxic, full curve] and active: 14.8 µM | Potency [2]: inconclusive: 5.8 µM [cytotoxic, full curve] | Potency [3]: inactive | Potency [4]: inactive | Potency [11]: inactive | Potency [6]: inactive | Potency [7]: inactive

COc1cc(NC(=O)c2ccc(-c3ccc(Cl)cc3)o2)cc(OC)c1
Potency [1]: inconclusive: 26.3 µM [cytotoxic, single point] | Potency [2]: inconclusive: 29.5 µM [cytotoxic, partial curve, poor fit] | Potency [3]: inactive | Potency [4]: inactive | Potency [11]: inactive | Potency [7]: inactive | Potency [8]: inconclusive: 35.5 µM [cytotoxic, partial curve, poor fit] | Potency [10]: inconclusive: 35.5 µM [cytotoxic, single point]

CCOc1ccccc1OCCNC(C)Cc1ccc(OC)c(S(N)(=O)=O)c1 (stereo not given)
Potency [1]: inactive | Potency [2]: inactive | Potency [3]: inactive | Potency [4]: inactive | Potency [5]: inactive

Nc1nc2ccc(OC(F)(F)F)cc2s1
Potency [1]: inconclusive: 18.6 µM [cytotoxic, partial curve] | Potency [2]: inconclusive: 20.9 µM [cytotoxic, partial curve] | Potency [9]: inconclusive: 23.5 µM [cytotoxic, single point] | Potency [6]: inconclusive: 37.2 µM [cytotoxic, single point] | Potency [7]: inconclusive: 33.2 µM [cytotoxic, single point] | Potency [8]: inconclusive: 23.1 µM [cytotoxic, single point]

Cc1nc(NC(=O)N2CCC[C@@H]2C(N)=O)sc1-c1csc(C(C)(C)C)n1
Potency [1]: inconclusive: 18.4 µM [cytotoxic, partial curve] | Potency [2]: inconclusive: 16.4 µM [cytotoxic, partial curve] | Potency [9]: active: 1.48 µM | Potency [7]: active: 1.05 µM

CCN(C)C(=O)Oc1cccc([C@H](C)N(C)C)c1
Potency [1]: inactive | Potency [2]: inconclusive: 1.88 µM [cytotoxic, partial curve, poor fit] | Potency [9]: inactive | Potency [6]: inactive | Potency [7]: inactive | activity (max response) [8]: inactive: 11.5%

COc1cc(O)c2c(c1)C1OC1C[C@H](O)[C@H](O)C(=O)C=CC[C@H](C)OC2=O (stereo not given in full)
Potency [1]: inconclusive: 0.0295 µM [cytotoxic, full curve] | Potency [2]: inconclusive: 0.0525 µM [cytotoxic, full curve] | Potency [9]: active: 10.5 µM | Potency [8]: active: 15.8 µM

O=C(O)c1cn(-c2ccc(F)cc2)c2cc(N3CCNCC3)c(F)cc2c1=O
Potency [1]: inactive and inconclusive: 26.3 µM [cytotoxic, partial curve] | Potency [2]: inconclusive: 14.8 µM [cytotoxic, partial curve] | Potency [3]: inactive | Potency [11]: inactive | Potency [6]: inactive | Potency [7]: inactive

CN1CCC(CNc2ccc3ncc(-c4cccc(OC(F)(F)F)c4)n3n2)CC1
Potency [1]: inconclusive: 36.6 nM [cytotoxic, full curve] and inconclusive: 66.1 nM [cytotoxic, full curve] | Potency [2]: active: 41.1 nM and active: 132 nM | Potency [3]: inconclusive: 29.6 µM [cytotoxic, single point] | Potency [4]: inconclusive: 33.2 µM [cytotoxic, single point] | Potency [11]: inconclusive: 26.4 µM [cytotoxic, single point] | Potency [5]: active: 5.9 µM

O=c1cc(CN2CCOCC2)occ1OCCCCCSc1ccnc2cc(C(F)(F)F)ccc12
Potency [1]: active: 11.8 µM and inconclusive: 8.2 µM [cytotoxic, partial curve] | Potency [2]: inconclusive: 4.61 µM [cytotoxic, partial curve] | Potency [3]: inconclusive: 16.6 µM [cytotoxic, partial curve, poor fit] | Potency [4]: inconclusive: 20.9 µM [cytotoxic, single point] | Potency [11]: inconclusive: 18.7 µM [cytotoxic, partial curve] | Potency [7]: inactive | Potency [10]: inconclusive: 20 µM [cytotoxic, partial curve, poor fit]

COc1cc2ncn(-c3cc(OCc4ccccc4S(C)(=O)=O)c(C#N)s3)c2cc1OC
Potency [1]: inconclusive: 0.525 µM [cytotoxic, full curve] | Potency [2]: inconclusive: 0.662 µM [cytotoxic, full curve, poor fit] | Potency [3]: inactive | Potency [4]: inactive | Potency [6]: inactive | Potency [10]: inconclusive: 2.82 µM [cytotoxic, single point]

O=C(N[C@H](CO)[C@H](O)c1ccc([N+](=O)[O-])cc1)C(Cl)Cl
Potency [1]: inconclusive: 17.2 µM [cytotoxic, partial curve] | Potency [2]: inconclusive: 17.2 µM [cytotoxic, partial curve] | Potency [3]: inconclusive: 23.5 µM [cytotoxic, partial curve, poor fit] | Potency [4]: inconclusive: 23.5 µM [cytotoxic, partial curve, poor fit] | Potency [11]: active: 20.9 µM | activity (max response) [8]: inactive: -5.45%
